The results in this text go back to patent US12043670B2, “Anti-BCMA antibody-drug conjugates and methods of use” (Eisai R&D Management Co., Ltd., priority 2020, dated 2024).

The chains are these.
B1: AB200-(2Vk44)_R2-VH-v1 (antibody)
heavy: QVQLVQSGAEVKKPGSSVKVSCKASGGTFTNYWIHWVRQAPGQGLEWMGGTYRSHSDTYYNQKYKSRVTITADKSTSTAYMELSSLRSEDTAVYYCARGAIYHGYDVIENWGQGTLVTVSSASTKGPSVFPLAPSSKSTSGGTAALGCLVKDYFPEPVTVSWNSGALTSGVHTFPAVLQSSGLYSLSSVVTVPSSSLGTQTYICNVNHKPSNTKVDKKVEPKSC
light: DIQMTQSPSSLSASVGDRVTITCRASQSISSYINWYQQKPGKAPKLLIYATSNLQIGVPSRFSGSGSGTDFTLTISSLQPEDFATYYCQQYRRLPWSFGQGTKLEIKRTVAAPSVFIFPPSDEQLKSGTASVVCLLNNFYPREAKVQWKVDNALQSGNSQESVTEQDSKDSTYSLSSTLTLSKADYEKHKVYACEVTHQGLSSPVTKSFNRGEC
B2: AB200-(2Vk44)_R2-VH-v14 (antibody)
heavy: QVQLVQSGAEVKKPGSSVKVSCKASGGSFSNYWIHWVRQAPGQGLEWMGATYRSHSTTYYNEKFKSRVTITADKSTSTAYMELSSLRSEDTAVYYCARGAVYHGYDVIDNWGQGTLVTVSSASTKGPSVFPLAPSSKSTSGGTAALGCLVKDYFPEPVTVSWNSGALTSGVHTFPAVLQSSGLYSLSSVVTVPSSSLGTQTYICNVNHKPSNTKVDKKVEPKSC
light: DIQMTQSPSSLSASVGDRVTITCRASQSISSYINWYQQKPGKAPKLLIYATSNLQIGVPSRFSGSGSGTDFTLTISSLQPEDFATYYCQQYRRLPWSFGQGTKLEIKRTVAAPSVFIFPPSDEQLKSGTASVVCLLNNFYPREAKVQWKVDNALQSGNSQESVTEQDSKDSTYSLSSTLTLSKADYEKHKVYACEVTHQGLSSPVTKSFNRGEC
B3: AB200-(2Vk44)_R2-VH-v41 (antibody)
heavy: QVQLVQSGAEVKKPGSSVKVSCKASGGTFTNYWIHWVRQAPGQGLEWMGGTYRIHSDTYYNEKFKSRVTITADKSTSTAYMELSSLRSEDTAVYYCARGAIYHGFDVIDNWGQGTLVTVSSASTKGPSVFPLAPSSKSTSGGTAALGCLVKDYFPEPVTVSWNSGALTSGVHTFPAVLQSSGLYSLSSVVTVPSSSLGTQTYICNVNHKPSNTKVDKKVEPKSC
light: DIQMTQSPSSLSASVGDRVTITCRASQSISSYINWYQQKPGKAPKLLIYATSNLQIGVPSRFSGSGSGTDFTLTISSLQPEDFATYYCQQYRRLPWSFGQGTKLEIKRTVAAPSVFIFPPSDEQLKSGTASVVCLLNNFYPREAKVQWKVDNALQSGNSQESVTEQDSKDSTYSLSSTLTLSKADYEKHKVYACEVTHQGLSSPVTKSFNRGEC
B4: AB200-(2Vk44)_R2-VH-v58 (antibody)
heavy: QVQLVQSGAEVKKPGSSVKVSCKASGGTFSNYWIHWVRQAPGQGLEWMGGTYRIHSDTNYNQKFKSRVTITADKSTSTAYMELSSLRSEDTAVYYCARGAIYHGFDVIDNWGQGTLVTVSSASTKGPSVFPLAPSSKSTSGGTAALGCLVKDYFPEPVTVSWNSGALTSGVHTFPAVLQSSGLYSLSSVVTVPSSSLGTQTYICNVNHKPSNTKVDKKVEPKSC
light: DIQMTQSPSSLSASVGDRVTITCRASQSISSYINWYQQKPGKAPKLLIYATSNLQIGVPSRFSGSGSGTDFTLTISSLQPEDFATYYCQQYRRLPWSFGQGTKLEIKRTVAAPSVFIFPPSDEQLKSGTASVVCLLNNFYPREAKVQWKVDNALQSGNSQESVTEQDSKDSTYSLSSTLTLSKADYEKHKVYACEVTHQGLSSPVTKSFNRGEC
B5: AB200-(2Vk44)_R2-VH-v53 (antibody)
heavy: QVQLVQSGAEVKKPGSSVKVSCKASGGSFSNYWIHWVRQAPGQGLEWMGATYRIHSDTNYNQKYKSRVTITADKSTSTAYMELSSLRSEDTAVYYCARGAIFHGYDVIDNWGQGTLVTVSSASTKGPSVFPLAPSSKSTSGGTAALGCLVKDYFPEPVTVSWNSGALTSGVHTFPAVLQSSGLYSLSSVVTVPSSSLGTQTYICNVNHKPSNTKVDKKVEPKSC
light: DIQMTQSPSSLSASVGDRVTITCRASQSISSYINWYQQKPGKAPKLLIYATSNLQIGVPSRFSGSGSGTDFTLTISSLQPEDFATYYCQQYRRLPWSFGQGTKLEIKRTVAAPSVFIFPPSDEQLKSGTASVVCLLNNFYPREAKVQWKVDNALQSGNSQESVTEQDSKDSTYSLSSTLTLSKADYEKHKVYACEVTHQGLSSPVTKSFNRGEC
B6: AB200-(2Vk44)_R2-VH-v35 (antibody)
heavy: QVQLVQSGAEVKKPGSSVKVSCKASGGTFSNYWIHWVRQAPGQGLEWMGATYRSHSDTYYAQKYKSRVTITADKSTSTAYMELSSLRSEDTAVYYCARGAIYHGYDVIENWGQGTLVTVSSASTKGPSVFPLAPSSKSTSGGTAALGCLVKDYFPEPVTVSWNSGALTSGVHTFPAVLQSSGLYSLSSVVTVPSSSLGTQTYICNVNHKPSNTKVDKKVEPKSC
light: DIQMTQSPSSLSASVGDRVTITCRASQSISSYINWYQQKPGKAPKLLIYATSNLQIGVPSRFSGSGSGTDFTLTISSLQPEDFATYYCQQYRRLPWSFGQGTKLEIKRTVAAPSVFIFPPSDEQLKSGTASVVCLLNNFYPREAKVQWKVDNALQSGNSQESVTEQDSKDSTYSLSSTLTLSKADYEKHKVYACEVTHQGLSSPVTKSFNRGEC
B7: AB200-(2Vk44)_R2-VH-v28 (antibody)
heavy: QVQLVQSGAEVKKPGSSVKVSCKASGGTFSNYWIHWVRQAPGQGLEWMGATYRSHSTTYYNQKYKSRVTITADKSTSTAYMELSSLRSEDTAVYYCARGAIYHGFDVIDNWGQGTLVTVSSASTKGPSVFPLAPSSKSTSGGTAALGCLVKDYFPEPVTVSWNSGALTSGVHTFPAVLQSSGLYSLSSVVTVPSSSLGTQTYICNVNHKPSNTKVDKKVEPKSC
light: DIQMTQSPSSLSASVGDRVTITCRASQSISSYINWYQQKPGKAPKLLIYATSNLQIGVPSRFSGSGSGTDFTLTISSLQPEDFATYYCQQYRRLPWSFGQGTKLEIKRTVAAPSVFIFPPSDEQLKSGTASVVCLLNNFYPREAKVQWKVDNALQSGNSQESVTEQDSKDSTYSLSSTLTLSKADYEKHKVYACEVTHQGLSSPVTKSFNRGEC
B8: AB200-(2Vk44)_R2-VH-v22 (antibody)
heavy: QVQLVQSGAEVKKPGSSVKVSCKASGGTFSNYWIHWVRQAPGQGLEWMGGTYRSQSDTYYNQKFKSRVTITADKSTSTAYMELSSLRSEDTAVYYCARGAVYHGYDVIDNWGQGTLVTVSSASTKGPSVFPLAPSSKSTSGGTAALGCLVKDYFPEPVTVSWNSGALTSGVHTFPAVLQSSGLYSLSSVVTVPSSSLGTQTYICNVNHKPSNTKVDKKVEPKSC
light: DIQMTQSPSSLSASVGDRVTITCRASQSISSYINWYQQKPGKAPKLLIYATSNLQIGVPSRFSGSGSGTDFTLTISSLQPEDFATYYCQQYRRLPWSFGQGTKLEIKRTVAAPSVFIFPPSDEQLKSGTASVVCLLNNFYPREAKVQWKVDNALQSGNSQESVTEQDSKDSTYSLSSTLTLSKADYEKHKVYACEVTHQGLSSPVTKSFNRGEC
B9: AB200-(2Vk44)_R2-VH-v60 (antibody)
heavy: QVQLVQSGAEVKKPGSSVKVSCKASGGTFSNYWIHWVRQAPGQGLEWMGGTYRIQSDTYYNQKFKSRVTITADKSTSTAYMELSSLRSEDTAVYYCARGAIYHGYDVIENWGQGTLVTVSSASTKGPSVFPLAPSSKSTSGGTAALGCLVKDYFPEPVTVSWNSGALTSGVHTFPAVLQSSGLYSLSSVVTVPSSSLGTQTYICNVNHKPSNTKVDKKVEPKSC
light: DIQMTQSPSSLSASVGDRVTITCRASQSISSYINWYQQKPGKAPKLLIYATSNLQIGVPSRFSGSGSGTDFTLTISSLQPEDFATYYCQQYRRLPWSFGQGTKLEIKRTVAAPSVFIFPPSDEQLKSGTASVVCLLNNFYPREAKVQWKVDNALQSGNSQESVTEQDSKDSTYSLSSTLTLSKADYEKHKVYACEVTHQGLSSPVTKSFNRGEC
B10: AB200-(2Vk44)_R2-VH-v24 (antibody)
heavy: QVQLVQSGAEVKKPGSSVKVSCKASGGTFSNYWIHWVRQAPGQGLEWMGGTYRSHSDTYYNEKFKSRVTITADKSTSTAYMELSSLRSEDTAVYYCARGAIFHGYDVIDNWGQGTLVTVSSASTKGPSVFPLAPSSKSTSGGTAALGCLVKDYFPEPVTVSWNSGALTSGVHTFPAVLQSSGLYSLSSVVTVPSSSLGTQTYICNVNHKPSNTKVDKKVEPKSC
light: DIQMTQSPSSLSASVGDRVTITCRASQSISSYINWYQQKPGKAPKLLIYATSNLQIGVPSRFSGSGSGTDFTLTISSLQPEDFATYYCQQYRRLPWSFGQGTKLEIKRTVAAPSVFIFPPSDEQLKSGTASVVCLLNNFYPREAKVQWKVDNALQSGNSQESVTEQDSKDSTYSLSSTLTLSKADYEKHKVYACEVTHQGLSSPVTKSFNRGEC
B11: AB200-(2Vk44)_R2-VH-v54 (antibody)
heavy: QVQLVQSGAEVKKPGSSVKVSCKASGGSFSNYWIHWVRQAPGQGLEWMGATYRIHSDTNYNEKFKSRVTITADKSTSTAYMELSSLRSEDTAVYYCARGAIYHGYDVIENWGQGTLVTVSSASTKGPSVFPLAPSSKSTSGGTAALGCLVKDYFPEPVTVSWNSGALTSGVHTFPAVLQSSGLYSLSSVVTVPSSSLGTQTYICNVNHKPSNTKVDKKVEPKSC
light: DIQMTQSPSSLSASVGDRVTITCRASQSISSYINWYQQKPGKAPKLLIYATSNLQIGVPSRFSGSGSGTDFTLTISSLQPEDFATYYCQQYRRLPWSFGQGTKLEIKRTVAAPSVFIFPPSDEQLKSGTASVVCLLNNFYPREAKVQWKVDNALQSGNSQESVTEQDSKDSTYSLSSTLTLSKADYEKHKVYACEVTHQGLSSPVTKSFNRGEC
B12: AB200-(2Vk44)_R2-VH-v44 (antibody)
heavy: QVQLVQSGAEVKKPGSSVKVSCKASGGTFTNYWIHWVRQAPGQGLEWMGATYRIHSDTNYAQKFKSRVTITADKSTSTAYMELSSLRSEDTAVYYCARGAIYHGYDVIENWGQGTLVTVSSASTKGPSVFPLAPSSKSTSGGTAALGCLVKDYFPEPVTVSWNSGALTSGVHTFPAVLQSSGLYSLSSVVTVPSSSLGTQTYICNVNHKPSNTKVDKKVEPKSC
light: DIQMTQSPSSLSASVGDRVTITCRASQSISSYINWYQQKPGKAPKLLIYATSNLQIGVPSRFSGSGSGTDFTLTISSLQPEDFATYYCQQYRRLPWSFGQGTKLEIKRTVAAPSVFIFPPSDEQLKSGTASVVCLLNNFYPREAKVQWKVDNALQSGNSQESVTEQDSKDSTYSLSSTLTLSKADYEKHKVYACEVTHQGLSSPVTKSFNRGEC

A short description of this data set: ThermoFluor thermostability (Tm). The class given is physicochemical. The following applies: Fab fragment; heavy chain clone paired with light chain AB200-(2Vk44).
On to B1, for which the Tm came out at 78.407 °C.

Regarding B2, the Tm is 81.915 °C.

As to B3, the Tm is 78.286 °C.

For the molecule B4, the Tm was determined as 75.513 °C.

On to B5, for which the Tm was 75.218 °C.

Consider B6, for which the Tm was found to be 76.189 °C.

In the case of B7, the Tm is 80.311 °C.

For B8, the Tm amounted to 79.696 °C.

With B9, the Tm came to 77.692 °C.

On to B10, for which the Tm came to 79.156 °C.

For B11, the Tm worked out at 75.912 °C.

Turning to B12, the Tm was 74.070 °C.
